The assay deals with MLKL phosphorylation, HT29-L23 human colorectal adenocarcinoma cells. Description: cells. As to conditions: read-out: pMLKL HCS Cell Assay (IC50, uM).
As to `CCc1ccc(-c2cc(C(F)(F)F)c3c(N)ncnn23)cc1C(=O)N[C@@H]1CN(C(=O)[C@@](C)(O)C(F)(F)F)C[C@@H]1F` [Example 976, 5-[4-amino-5-(trifluoromethyl)pyrrolo[2,1-f][1,2,4]triazin-7-yl]-2-ethyl-N-[(3R,4S)-4-fluoro-1-[(2R)-3,3,3-trifluoro-2-hydroxy-2-methylpropanoyl]pyrrolidin-3-yl]benzamide], the IC50 (in general, the point on the concentration scale where inhibition reaches its midpoint) amounted to 0.0031 µM.

Consider `COc1ncc(-c2cc(C(F)(F)F)c3c(N)ncnn23)cc1C(=O)NC1CN(CC2CC2)CC1F` (racemic) [Example 197, 5-[4-amino-5-(trifluoromethyl)pyrrolo[2,1-f][1,2,4]triazin-7-yl]-N-[1-(cyclopropylmethyl)-4-fluoropyrrolidin-3-yl]-2-methoxypyridine-3-carboxamide], for which the IC50 is 0.064 µM.

Turning to `COc1ncc(-c2cc(C(F)(F)F)c3c(N)ncnn23)cc1C(=O)N[C@@H]1CN(C(=O)C(C)(C)CF)C[C@@H]1F` [Example 314, 5-[4-amino-5-(trifluoromethyl)pyrrolo[2,1-f][1,2,4]triazin-7-yl]-N-[(3R,4S)-4-fluoro-1-(3-fluoro-2,2-dimethylpropanoyl)pyrrolidin-3-yl]-2-methoxypyridine-3-carboxamide], the IC50 stood at 0.029 µM.

With `COC(=O)C1CCCC1N1CC(NC(=O)c2cc(-c3cc(C(F)(F)F)c4c(N)ncnn34)cnc2OC)[C@@H](F)C1` (stereo partly drawn) [Example 1371, methyl 2-[(3R,4S)-3-{5-[4-amino-5-(trifluoromethyl)-pyrrolo[2,1-f][1,2,4]triazin-7-yl]-2-methoxypyridine-3-amido}-4-fluoropyrrolidin-1-yl]cyclopentane-1-carboxy-late], the IC50 came to 0.255 µM.

Turning to `COc1ncc(-c2cc(C(F)(F)F)c3c(N)ncnn23)cc1C(=O)Nc1cnn(CC(C)(C)C)c1` [Example 48, 5-(4-amino-5-(trifluoromethyl)pyrrolo[2,1-f][1,2,4]triazin-7-yl)-2-methoxy-N-(1-neopentyl-1H-pyrazol-4-yl)nicotinamide], the IC50 worked out at 0.0086 µM.

As to `COc1ncc(-c2cc(C(F)(F)F)c3c(N)ncnn23)cc1C(=O)NCC(O)C(O)c1ccccc1` (stereo not shown) [Example 1768, 5-(4-amino-5-(trifluoromethyl)pyrrolo[2,1-f][1,2,4]triazin-7-yl)-N-(2,3-dihydroxy-3-phenylpropyl)-2-methoxynicotinamide], the IC50 came to 0.034 µM.

On to `Nc1ncnn2c(-c3ccc(Cl)c(C(=O)N[C@@H]4CN(C(=O)C5CC(F)(F)C5)C[C@@H]4F)c3)cc(CN3CCC(F)(F)CC3)c12` [Example 1140, 5-{4-amino-5-[(4,4-difluoropiperidin-1-yl)methyl]pyrrolo[2,1-f][1,2,4]triazin-7-yl}-2-chloro-N-[(3R,4S)-1-(3,3-difluorocyclobutanecarbonyl)-4-fluoropyrrolidin-3-yl]benzamide], for which the IC50 is 0.0011 µM.

As to `COc1cc(C(=O)N[C@@H]2CN(C(=O)C3CC3(F)F)C[C@@H]2F)cc(-c2cc(C(F)(F)F)c3c(N)ncnn23)c1` (stereo partly drawn) [Example 581, 3-[4-amino-5-(trifluoromethyl)pyrrolo[2,1-f][1,2,4]triazin-7-yl]-N-[(3R,4S)-1-(2,2-difluorocyclopropanecarbonyl)-4-fluoropyrrolidin-3-yl]-5-methoxybenzamide], the half-inhibitory concentration (IC50) was determined as 0.02 µM.

Regarding `COc1ncc(-c2cc(CN3CC(C)OC(C)C3)c3c(N)ncnn23)cc1C(=O)N[C@@H]1CN(C(=O)C2CC(F)(F)C2)C[C@@H]1F` (stereo partly drawn) [Example 490, 5-{4-amino-5-[(2,6-dimethylmorpholin-4-yl)methyl]pyrrolo[2,1-f][1,2,4]triazin-7-yl}-N-[(3R,4S)-1-(3,3-difluorocyclobutanecarbonyl)-4-fluoropyrrolidin-3-yl]-2-methoxypyridine-3-carboxamide], the IC50 amounted to 0.03 µM.

Turning to `Nc1ncc(-c2cc(C(F)(F)F)c3c(N)ncnn23)cc1C(=O)NCC[C@@H](O)c1ccc(Cl)cc1` [Example 26, 2-amino-5-[4-amino-5-(trifluoromethyl)pyrrolo[2,1-f][1,2,4]triazin-7-yl]-N-[(3R)-3-(4-chlorophenyl)-3-hydroxypropyl]pyridine-3-carboxamide], the IC50 was determined as 0.0082 µM.

As to `Cc1ccc(-c2cc(C(F)(F)F)c3c(N)ncnn23)cc1C(=O)N[C@@H]1CN(C(=O)C(C)(C)O)C[C@@H]1F` [Example 988, 5-[4-amino-5-(trifluoromethyl)pyrrolo[2,1-f][1,2,4]triazin-7-yl]-N-[(3R,4S)-4-fluoro-1-(2-hydroxy-2-methylpropanoyl)pyrrolidin-3-yl]-2-methylbenzamide], the IC50 is 0.018 µM.

With `Cc1ncc(-c2cc(C(F)(F)F)c3c(N)ncnn23)cc1C(=O)N[C@@H]1CN(C(=O)CC(C)C(F)(F)F)C[C@@H]1F` (stereo partly drawn) [Example 1232, 5-[4-amino-5-(trifluoromethyl)pyrrolo[2,1-f][1,2,4]triazin-7-yl]-N-[(3R,4S)-4-fluoro-1-(4,4,4-trifluoro-3-methylbutanoyl)pyrrolidin-3-yl]-2-methylpyridine-3-carboxamide], the IC50 was 0.0033 µM.

Consider `Cc1ncc(-c2cc(C(F)(F)F)c3c(N)ncnn23)cc1C(=O)NCCC(O)(c1ccccc1)C(F)(F)F` (stereo not shown) [Example 13, 5-[4-amino-5-(trifluoromethyl)pyrrolo[2,1-f][1,2,4]triazin-7-yl]-2-methyl-N-(4,4,4-trifluoro-3-hydroxy-3-phenylbutyl)pyridine-3-carboxamide], for which the IC50 was 0.03 µM.

On to `COc1ncc(-c2cc(C(F)(F)F)c3c(N)ncnn23)cc1C(=O)NC1CN(CC2CCCC2)CC1F` (racemic) [Example 194, 5-[4-amino-5-(trifluoromethyl)pyrrolo[2,1-f][1,2,4]triazin-7-yl]-N-[1-(cyclopentylmethyl)-4-fluoropyrrolidin-3-yl]-2-methoxypyridine-3-carboxamide], for which the IC50 came out at 0.085 µM.

`Nc1ncnn2c(-c3cnc(F)c(C(=O)NCCC(O)(c4ccccc4)C(F)(F)F)c3)cc(C(F)(F)F)c12` (stereo not shown) [Example 273, 5-[4-amino-5-(trifluoromethyl)pyrrolo[2,1-f][1,2,4]triazin-7-yl]-2-fluoro-N-(4,4,4-trifluoro-3-hydroxy-3-phenylbutyl)pyridine-3-carboxamide]: the IC50 was determined as 0.148 µM.

As to `COc1ncc(-c2cc(C(F)(F)F)c3c(N)ncnn23)cc1C(=O)N[C@@H]1CN(C(C)c2sc(Cl)nc2C)C[C@@H]1F` (stereo partly drawn) [Example 1397, 5-[4-amino-5-(trifluoromethyl)-pyrrolo[2,1-f][1,2,4]triazin-7-yl]-N-[(3R,4S)-1-[1-(2-chloro-4-methyl-1,3-thiazol-5-yl)-ethyl]-4-fluoropyrrolidin-3-yl]-2-methoxypyridine-3-carboxamide], the IC50 is 0.028 µM.

On to `COc1ncc(-c2cc(C(F)(F)F)c3c(N)ncnn23)cc1C(=O)N1CCCN(Cc2ccccc2)C1` [Example 150, 7-[5-(3-benzyl-1,3-diazinane-1-carbonyl)-6-methoxypyridin-3-yl]-5-(trifluoromethyl)pyrrolo[2,1-f][1,2,4]triazin-4-amine], for which the IC50 came to 0.397 µM.

Consider `COc1ncc(-c2cc(C(F)(F)F)c3c(N)ncnn23)cc1C(=O)N[C@@H]1CN(C(=O)O[C@@H](C)CO)C[C@@H]1F` [Example 1449, (2S)-1-hydroxypropan-2-yl (3R,4S)-3-{5-[4-amino-5-(trifluoromethyl)pyrrolo[2,1-f][1,2,4]triazin-7-yl]-2-methoxypyridine-3-amido}-4-fluoropyrrolidine-1-carboxylate], for which the IC50 was determined as 0.131 µM.

As to `COc1ncc(-c2cc(C#N)c3c(N)ncnn23)cc1C(=O)N[C@@H]1CN(C(=O)[C@@](C)(O)C(F)(F)F)C[C@@H]1F` [Example 1569, 5-{4-amino-5-cyanopyrrolo[2,1-f][1,2,4]triazin-7-yl}-N-[(3R,4S)-4-fluoro-1-[(2R)-3,3,3-trifluoro-2-hydroxy-2-methylpropanoyl]pyrrolidin-3-yl]-2-methoxypyridine-3-carboxamide], the IC50 was determined as 0.014 µM.

Consider `COc1ncc(-c2c(C#N)cc3c(N)ncnn23)cc1C(=O)N[C@H](C)c1cc(OC(F)(F)F)ccc1F` [Example 548, (R)-5-(4-amino-6-cyanopyrrolo[2,1-f][1,2,4]triazin-7-yl)-N-(1-(2-fluoro-5-(trifluoromethoxy)phenyl)ethyl)-2-methoxynicotinamide], for which the IC50 came to 0.091 µM.

Regarding `Nc1ncnn2c(-c3cccc(C(=O)N[C@@H]4CN(C(=O)C5CC(F)(F)C5)C[C@@H]4F)c3)cc(CN3CC(F)(F)C3)c12` [Example 1181, 3-{4-amino-5-[(3,3-difluoroazetidin-1-yl)methyl]pyrrolo[2,1-f][1,2,4]triazin-7-yl}-N-[(3R,4S)-1-(3,3-difluorocyclobutanecarbonyl)-4-fluoropyrrolidin-3-yl]benzamide], the IC50 was 0.0013 µM.

Turning to `CC(C(=O)N1C[C@H](F)[C@H](NC(=O)c2cc(-c3cc(C(F)(F)F)c4c(N)ncnn34)c(F)cc2Cl)C1)C(F)(F)F` (stereo partly drawn) [Example 884, 5-[4-amino-5-(trifluoromethyl)pyrrolo[2,1-f][1,2,4]triazin-7-yl]-2-chloro-4-fluoro-N-[(3R,4S)-4-fluoro-1-(3,3,3-trifluoro-2-methylpropanoyl)pyrrolidin-3-yl]benzamide], the IC50 worked out at 0.0066 µM.

Turning to `COc1ncc(-c2cc(C(F)(F)F)c3c(N)ncnn23)cc1C(=O)Nc1cn(C(c2ccccc2)C(F)(F)F)cn1` (stereo not shown) [Example 1798, 5-(4-amino-5-(trifluoromethyl)pyrrolo[2,1-f][1,2,4]triazin-7-yl)-2-methoxy-N-(1-(2,2,2-trifluoro-1-phenylethyl)-1H-imidazol-4-yl)nicotinamide], the IC50 came out at 0.015 µM.

For the compound `Nc1ncnn2c(-c3cccc(C(=O)N[C@@H]4CN(C(=O)CC(F)(F)F)C[C@@H]4F)c3)cc(CN3CC(F)(F)C3)c12` [Example 1169, 3-{4-amino-5-[(3,3-difluoroazetidin-1-yl)methyl]pyrrolo[2,1-f][1,2,4]triazin-7-yl}-N-[(3R,4S)-4-fluoro-1-(3,3,3-trifluoropropanoyl)pyrrolidin-3-yl]benzamide], the IC50 was determined as 0.0018 µM.

With `Cc1cc(F)c(-c2cc(C(F)(F)F)c3c(N)ncnn23)cc1C(=O)N[C@@H]1CN(C(=O)c2c(F)cncc2F)C[C@@H]1F` [Example 835, 5-[4-amino-5-(trifluoromethyl)pyrrolo[2,1-f][1,2,4]triazin-7-yl]-N-[(3R,4S)-1-(3,5-difluoropyridine-4-carbonyl)-4-fluoropyrrolidin-3-yl]-4-fluoro-2-methylbenzamide], the IC50 amounted to 0.0041 µM.

The record behind these values is patent US11618753B2 (priority 2018, dated 2023).
